{"source": "PubChem BioAssay AID588855", "about": "(National Center for Advancing Translational Sciences (NCATS), 2011)", "note": "About 5,000 (1.2%) of roughly 410,000 compounds were called active. The shares of active, inactive and inconclusive entries below differ from those in the screen. Calls come from the whole dose curve; as a rule, active = well fitted inhibition curve with a large enough effect; inconclusive = small, poorly fitted or top-dose-only effect; inactive = no such curve, though single readings can be large or run the other way. Potencies beside an inconclusive call are fits to weak or partial responses and may not hold up. % is set by controls: 0 for no effect and ±100 for the full control effect; potency is the fitted concentration of half-maximal effect; tags give direction and shape of the fitted curve.", "data": [{"experiment": "qHTS for Inhibitors of TGF-b; note: nearly all actives have a fitted effect of over 65% in size", "settings": "HepG2 CAGA-GFP TGF-b/SMAD3 reporter, GFP fluorescence, 18 h, TGF-beta stimulated, 500 pg/mL final; series mostly up to 46.1 µM; activity, negative = inhibition: at the top concentration", "procedure,_shortened": "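Per well, imaged GFP fluorescence of HEPG2 CAGA-GFP cells gives the signal; cells get compound, then TGF-beta (500 pg/mL final), 18 h at 37 degrees C; %Activity versus -TGF-beta and +DMSO controls.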", "values": [{"smiles": "Cc1cccn2c(CN3CCNC(=O)CC3)c(C(=O)N(C)CCc3ccccc3)nc12", "Potency": "inconclusive: 4.47 µM [inhibitor, single point]"}, {"smiles": "CCOC(=O)c1ccc(NC(=O)C2C3CCCCC32)cc1", "note": "(stereo unspecified)", "activity, negative = inhibition": "inactive: 11.1%"}, {"smiles": "COc1ccc(NC(=S)N2CCC(C(=O)N3CCCCCC3)CC2)cc1", "Potency": "inconclusive: 6.31 µM [inhibitor, single point]"}, {"smiles": "CCCN(Cc1cc2cc(C)ccc2[nH]c1=O)C(=O)c1cccc(Cl)c1", "activity, negative = inhibition": "inactive: -4.71%"}, {"smiles": "CNC(=O)C12CCC(C)(c3nc4cc(C)c(C)cc4nc31)C2(C)C", "note": "(stereo unspecified)", "activity, negative = inhibition": "inactive: 6.76%"}, {"smiles": "Cc1ccc(CC(=O)NCC(O)c2ccccc2)cc1", "note": "(stereo unspecified)", "activity, negative = inhibition": "inactive: -12.4%"}, {"smiles": "COC(=O)c1sccc1NC(=O)/C=C/c1c(Cl)cccc1Cl", "Potency": "inconclusive: 0.112 µM [inhibitor, full curve, poor fit]"}, {"smiles": "CCOC(=O)c1cnc(-n2nc(C)cc2C)nc1NCc1ccccc1", "Potency": "inconclusive: 20 µM [inhibitor, single point]"}, {"smiles": "C[C@@H]1CN(C(=O)c2cc(COc3cccc(C(F)(F)F)c3)on2)C[C@H](C)O1", "activity, negative = inhibition": "inactive: 1.16%"}, {"smiles": "CCCCn1c(N)c(N(CC(C)C)C(=O)CSCc2ccc(Cl)c(Cl)c2)c(=O)[nH]c1=O", "activity, negative = inhibition": "inactive: -29.2%"}, {"smiles": "COc1cc(Br)cc(/C=N/NC(=O)Cc2ccccc2)c1O", "Potency": "active: 10 µM"}, {"smiles": "COc1ccc(CN2C3CCC2CC(NC(=O)c2cc(OC)c(OC)c(OC)c2)C3)cc1", "note": "(stereo unspecified)", "activity, negative = inhibition": "inactive: 12.4%"}, {"smiles": "CC(=O)c1cn(CCOc2ccc(F)cc2)c2ccccc12", "Potency": "inconclusive: 6.31 µM [inhibitor, full curve]"}, {"smiles": "CC(C)C[C@@H](CO)N1CCN(CCc2ccccc2)CCC1=O", "Potency": "inactive"}, {"smiles": "CCCN(C(=O)C1CCN(S(=O)(=O)c2c(C)noc2/C=C/c2ccc(C)cc2)CC1)c1ccccc1F", "Potency": "inconclusive: 10 µM [inhibitor, partial curve]"}, {"smiles": "CCN1CCOC(=O)C1CC(=O)Nc1ccccc1C(F)(F)F", "note": "(stereo unspecified)", "Potency": "inconclusive: 4.47 µM [inhibitor, full curve]"}, {"smiles": "CCOC(=O)N1CCN(S(=O)(=O)c2cccc3nsnc23)CC1", "Potency": "inconclusive: 3.16 µM [inhibitor, partial curve, poor fit]"}, {"smiles": "CN(C)c1ccc(-c2ccnc3c2CC(C)(C(=O)NCc2ccccc2)O3)cc1", "note": "(stereo unspecified)", "Potency": "inconclusive: 35.5 µM [inhibitor, single point]"}, {"smiles": "Cc1nnc(SCC(=O)Nc2ccc3c(c2)OCO3)n(N)c1=O", "activity, negative = inhibition": "inactive: 0.152%"}, {"smiles": "CCNC(=S)N/N=C/c1cn(Cc2ccc(F)cc2)c2ccccc12", "Potency": "inconclusive: 2.82 µM [inhibitor, single point]"}, {"smiles": "Cc1cccc(CN2CCc3c(OCC(=O)N4CCCc5ccccc54)cccc3C2=O)c1", "Potency": "inconclusive: 35.5 µM [inhibitor, single point]"}, {"smiles": "CC(=O)c1c(C(C)=O)c(C)n(-c2ccc(N)cc2)c1C", "Potency": "inconclusive: 35.5 µM [inhibitor, single point]"}, {"smiles": "COc1cccc2c1N(C)C(=O)CC21C=CC(=O)C=C1", "activity, negative = inhibition": "inactive: -22.9%"}, {"smiles": "CN1CCc2c(sc(/N=C/c3c[nH]c4ccccc34)c2C#N)C1", "activity, negative = inhibition": "inactive: 36.6%"}, {"smiles": "CCOc1cc(-c2nc(-c3ccccc3)c(-c3cc([N+](=O)[O-])ccc3C)[nH]2)ccc1O", "Potency": "inconclusive: 35.5 µM [inhibitor, partial curve, poor fit]"}, {"smiles": "CCNc1nc(N)c(C(=C(C#N)C#N)c2ccccc2)s1", "Potency": "inconclusive: 14.1 µM [inhibitor, partial curve, poor fit]"}, {"smiles": "COC(CNC(=O)C(=O)Nc1cc2c3c(c1)CCN3C(=O)CC2)OC", "activity, negative = inhibition": "inactive: -2.99%"}, {"smiles": "CC1CCc2[nH]c3ccc(C(=O)N(C)CC(=O)Nc4ccc(F)cc4)cc3c2C1", "note": "(stereo unspecified)", "activity, negative = inhibition": "inactive: 0%"}, {"smiles": "CCc1cc(C(=O)N2CCCC(N3CCN(c4cccc(C(F)(F)F)c4)CC3)C2)n(C)n1", "note": "(stereo unspecified)", "Potency": "inconclusive: 25.1 µM [inhibitor, single point]"}, {"smiles": "COc1cccc(/C=C2/SC(=S)N(CCCC(=O)Nc3ccc(O)cc3)C2=O)c1", "Potency": "inconclusive: 14.1 µM [inhibitor, partial curve, poor fit]"}, {"smiles": "O=C(CSc1c2c(nc3cc(Cl)ccc13)CCCC2)NCCCN1CCOCC1", "Potency": "inconclusive: 15.8 µM [inhibitor, partial curve, poor fit]"}, {"smiles": "Cc1cc(C)cc(OCC(=O)N/N=C/c2ccccn2)c1", "activity, negative = inhibition": "inactive: 3.43%"}, {"smiles": "CC(=O)NC(Cc1c[nH]c2ccccc12)C(=O)N1CCN(S(=O)(=O)c2ccccc2)CC1", "note": "(stereo unspecified)", "activity, negative = inhibition": "inactive: -56.4%"}, {"smiles": "N#CC1=C(N)Oc2n[nH]c(-c3ccccc3)c2C1c1cccnc1", "note": "(stereo unspecified)", "activity, negative = inhibition": "inactive: -9.19%"}, {"smiles": "CCc1ccc(C(C)NC(=S)NC2CCCCC2)cc1", "note": "(stereo unspecified)", "Potency": "inconclusive: 14.1 µM [inhibitor, single point]"}, {"smiles": "O=C(Nc1nc(-c2cccc([N+](=O)[O-])c2)cs1)C(c1ccccc1)c1ccccc1", "Potency": "inconclusive: 10 µM [inhibitor, single point]"}, {"smiles": "O=C(c1ccc2c(c1)OCO2)C1CCCN(C(=O)c2cnn(Cc3ccccc3)c2)C1", "note": "(stereo unspecified)", "Potency": "inconclusive: 25.1 µM [inhibitor, single point]"}, {"smiles": "O=C(CN1C(=O)CCSc2ccc(S(=O)(=O)N3CCCC3)cc21)Nc1cccc(Cl)c1", "Potency": "inconclusive: 35.5 µM [inhibitor, single point]"}, {"smiles": "CCN(CC)S(=O)(=O)c1ccc2c(c1)N(CC(=O)NCc1ccccc1)C(=O)CS2", "Potency": "inconclusive: 20 µM [inhibitor, partial curve, poor fit]"}, {"smiles": "COc1cc(Cl)c(C)cc1NC(=O)CSc1cc(=O)n(C)c2cc(Cl)ccc12", "Potency": "inconclusive: 35.5 µM [inhibitor, single point]"}, {"smiles": "Cc1cccc(C)c1Nc1c(-c2ccsc2)nc2ncccn12", "activity, negative = inhibition": "inactive: -4.95%"}, {"smiles": "Cc1cc(C)c(C2=CC(=O)C[C@H](c3ccc4c(c3)OCO4)C2)c(C)c1", "Potency": "inconclusive: 15.8 µM [inhibitor, single point]"}, {"smiles": "CC(CC12CC3CC(CC(C3)C1)C2)NCc1ccccc1O", "note": "(stereo unspecified)", "Potency": "active: 17.8 µM"}, {"smiles": "COc1ccc(N2CCN(C(=O)COC(=O)[C@@H](NC(=O)c3c(F)cccc3F)C(C)C)CC2)cc1", "Potency": "inconclusive: 20 µM [inhibitor, single point]"}, {"smiles": "Cc1cc(C(=O)NC2CCCCC2C)c2ccccc2n1", "note": "(stereo unspecified)", "activity, negative = inhibition": "inactive: 6.22%"}, {"smiles": "COc1cc(OC)c(NC2=CC(=O)C(=O)c3ccccc32)cc1Cl", "Potency": "inconclusive: 2.24 µM [inhibitor, partial curve, poor fit]"}]}]}
